Among all 310,000 compounds or so, about 14,000 (4.5%) showed an effect of 50% or more. The effect is printed as a negative number. The list shows a part of the results.
Biological target: human ether-à-go-go-related gene (hERG) potassium channel (human, UniProt Q12809)
Assay: primary screen, population patch clamp on CHO cells stably expressing hERG
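Note: peak tail current of the secondary pulse compared with the same well before compound.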

Sequence of human ether-à-go-go-related gene (hERG) potassium channel (Q12809 whole entry, looked up): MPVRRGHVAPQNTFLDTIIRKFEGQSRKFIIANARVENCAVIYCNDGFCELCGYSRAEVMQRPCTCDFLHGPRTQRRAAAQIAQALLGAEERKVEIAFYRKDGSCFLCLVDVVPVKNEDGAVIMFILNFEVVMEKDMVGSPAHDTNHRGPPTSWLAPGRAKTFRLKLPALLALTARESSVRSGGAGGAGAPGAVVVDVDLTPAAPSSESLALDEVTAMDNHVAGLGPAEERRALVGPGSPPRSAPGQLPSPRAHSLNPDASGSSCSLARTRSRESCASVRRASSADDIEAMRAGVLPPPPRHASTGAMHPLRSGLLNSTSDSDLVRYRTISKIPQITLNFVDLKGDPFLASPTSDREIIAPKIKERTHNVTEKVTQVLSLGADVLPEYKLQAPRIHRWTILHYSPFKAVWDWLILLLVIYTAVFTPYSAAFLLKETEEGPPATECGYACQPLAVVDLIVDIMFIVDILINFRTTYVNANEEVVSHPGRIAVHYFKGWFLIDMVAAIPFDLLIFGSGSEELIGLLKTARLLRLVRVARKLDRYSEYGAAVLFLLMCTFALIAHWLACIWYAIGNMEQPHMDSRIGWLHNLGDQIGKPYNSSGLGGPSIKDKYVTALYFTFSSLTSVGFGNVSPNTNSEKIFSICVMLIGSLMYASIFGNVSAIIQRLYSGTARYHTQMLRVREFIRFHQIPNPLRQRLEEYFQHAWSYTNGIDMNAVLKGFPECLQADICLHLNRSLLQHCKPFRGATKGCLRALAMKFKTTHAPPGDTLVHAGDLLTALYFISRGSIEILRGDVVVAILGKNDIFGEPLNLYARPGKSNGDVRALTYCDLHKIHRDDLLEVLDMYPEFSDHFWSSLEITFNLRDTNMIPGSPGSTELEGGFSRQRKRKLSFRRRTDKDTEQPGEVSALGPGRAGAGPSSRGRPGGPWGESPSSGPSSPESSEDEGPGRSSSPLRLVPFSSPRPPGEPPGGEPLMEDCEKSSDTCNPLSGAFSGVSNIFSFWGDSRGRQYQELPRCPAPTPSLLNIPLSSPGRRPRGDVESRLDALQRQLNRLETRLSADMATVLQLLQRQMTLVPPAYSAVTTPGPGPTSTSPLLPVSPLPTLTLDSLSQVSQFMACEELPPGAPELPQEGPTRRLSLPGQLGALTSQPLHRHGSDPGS

Structure (SMILES)	hERG current change (%, negative = inhibition) at 10uM [%]
O=C(Nc1ccc(Oc2cccnc2)cc1)c1ccccc1Cl	9.45
C=C[C@]1(C)C[C@@H](OC(=O)CSCCN(CC)CC)[C@]2(C)C(C)CC[C@]3(CCC(=O)[C@H]32)[C@@H](C)[C@@H]1O (stereo partly drawn)	-61.9
CC[N+]12CCC(CC1)C(C(O)(c1ccccc1)c1ccccc1)C2.[Br-] (stereo not drawn)	-5.24
C=CCN(c1ccccc1)S(=O)(=O)c1cccc2cccnc12	-19
Clc1ccc(CSc2ccc(-c3cccnc3)nn2)cc1	-48.6
C#CCCOC(=O)N1C2=NC(C(=O)OC)=C(C(=O)OC)[C@@H]3N(C)c4ccccc4[C@]23C[C@H]1C(=O)OC	-9.95
CCCCNC(=S)NNC(=O)c1cc(C2CC2)nc2ccccc12	8.3
O=C(Nc1nnc(-c2ccco2)o1)c1ccc(S(=O)(=O)N2CCOCC2)cc1	17.6
O=C(O)c1ccc2cccnc2n1	30.9
C=CCn1c(O)c(C(CC)=NC(C)c2ccccc2)c(=O)[nH]c1=O (stereo not drawn)	-14.8
C/C(=C1/C(=O)N(c2ccc([N+](=O)[O-])cc2)N=C1c1ccccc1)N(C)C	-13.9
CN(C)/C=C1\C(=O)NN=C1c1ccccc1	-2.22
CC(Oc1cc2oc(=O)c3c(c2cc1Cl)CCC3)C(=O)NC1CC(C)(C)NC(C)(C)C1 (stereo not drawn)	-5.69
COc1cc(C(=O)NCc2cn3cccc(C)c3n2)cc(OC)c1OC	-9.39
O=C(CN1CCOc2ccccc21)NC1CCCCCCC1	-1.87
COc1ccc(C(=O)Nc2cc(-c3ccccc3)nn2-c2ccccc2F)cc1	-7.4
O=C(CN1C(=O)c2ccc([N+](=O)[O-])cc2C1=O)Nc1cc(S(=O)(=O)N2CCOCC2)ccc1Cl	-60.8
CCOC(=O)C1(Cc2cccc(OC)c2)CCCN(Cc2c(C)nn(C(C)C)c2C)C1 (stereo not drawn)	-10.1
C=CCc1cccc2cc(C(=O)NNC(=O)c3ccncc3)c(=O)oc12	9.91
COc1ccccc1CN1CN(S(=O)(=O)c2ccccc2)c2nc3ccccc3nc21	8.16
CC(Sc1nc2ccccc2c(=O)n1Cc1ccco1)C(=O)c1ccccc1 (stereo not drawn)	-53.9

Structure (SMILES)	hERG current change (%, negative = inhibition) at 10uM [%]
O=C1CC(N2CCN(c3ccccc3O)CC2)C(=O)N1Cc1ccccc1 (stereo not drawn)	5.48
CCOC(=O)c1c(NC(=O)COC(=O)Cn2cnc3c2c(=O)n(C)c(=O)n3C)sc(C)c1CC	1.03
Nc1ccc2nc(-c3cccs3)[nH]c2c1	-3.71
CCOC(=O)C(CC)Sc1ccc2nnc(CCNS(=O)(=O)c3ccccc3)n2n1 (stereo not drawn)	-32.2
CC(=O)c1ccc(NC(=S)N2C(C)CCCC2C)cc1 (stereo not drawn)	2.08
CCC(c1ccc(C)cc1)N1C(=O)C2C3CCC(O3)C2C1=O (stereo not drawn)	10.2
Cc1cccc(-c2nnc3n2N=C(c2ccc(Br)cc2)CS3)c1	-9.44
CC1CCCCN1C(C(=O)O)c1ccccc1.Cl (stereo not drawn)	18.9
COc1cc(/C=N/NS(=O)(=O)c2ccc(C)c([N+](=O)[O-])c2)ccc1O	10.9
O=C(CN(C(=O)c1csnn1)c1ccccc1Cl)NCCc1ccccc1	-3.87
CCOc1ccc(N2C(=O)C3C(c4ccc(O)cc4)NC(CCSC)(C(=O)OC)C3C2=O)cc1 (stereo not drawn)	-12.3
COc1ccc(C(=O)Nc2ccnn2C2CCN(Cc3ccc4nonc4c3)CC2)cc1	-43.1
Cc1onc(-c2ccccc2)c1C(=O)OCc1nnc(-c2ccccc2)o1	-15.6
Cc1ccc(S(=O)(=O)N2CCOCC2)cc1C(=O)Nc1ccncc1	-35.2
CC(=O)OCC1=C(C(=O)O)N2C(=O)C(NC(=O)c3ccc(COc4cccc(Cl)c4Cl)o3)C2SC1 (stereo not drawn)	14.4
Cc1cccc(C(=O)Nc2ccc(C(=O)c3ccccc3)cc2)c1	-1.47
COC(=O)Cc1cc(=O)oc2cc(OC)ccc12	-0.331
Cc1cccc(OCc2nnc(SCC(=O)N3c4ccccc4CCc4ccccc43)o2)c1	-0.133
CSCCC(NS(=O)(=O)c1ccc(C)cc1)C(=O)NCCc1c[nH]c2ccccc12 (stereo not drawn)	-13.9
CSc1nc(N(C)NC(=O)c2ccc(Cl)cc2)c2ccccc2n1	2.16
O=S(=O)(/N=C(/c1ccc(Cl)cc1)N1CCOCC1)c1ccc(Cl)cc1	-23

Structure (SMILES)	hERG current change (%, negative = inhibition) at 10uM [%]
Fc1ccc(-c2nnc(CN3CCN(c4ncc(C(F)(F)F)cc4Cl)CC3)o2)cc1	-45.4
Cc1ccsc1/C=C(\C#N)C(=O)NCc1cccnc1	-27.5
O=C(NCCCN1CCCC1=O)NC1CCCCC1	10.9
CCNc1nc(OCCNS(=O)(=O)c2cc(C)ccc2C)nc(N(C)C)n1	-12.1
CC(NC(=O)c1cccc(S(=O)(=O)N2CCN(C)CC2)c1)c1ccc(Cl)cc1Cl (stereo not drawn)	-42.5
COc1ccc(CCNc2nc(C)nc3c2oc2ccccc23)cc1OC	-19.3
Cc1ccc(-c2csc(N(CCO)CCCn3c(C(F)(F)F)nc4ccccc43)n2)cc1	17.6
CCOC(=O)Nc1ccc2c(c1)N(C(=O)CCN(C)C)c1ccccc1CC2	-40.7
COC(=O)C1CCN(C(=O)COC(=O)c2cc(-c3cccs3)nn2-c2ccccc2)CC1	-37.6
O=C(CN1C(=O)c2ccccc2S1(=O)=O)N1CCCCC1	9.53
O=C(Nc1ccccc1C(=O)N1CCN(CCO)CC1)c1cccc([N+](=O)[O-])c1	7
C=CCn1c(SCC(=O)N2N=C(c3ccco3)CC2c2ccco2)nnc1-c1ccncc1 (stereo not drawn)	-41.1
O=C(CCC1N=C2c3ccccc3N=C(SCc3ccc(Cl)cc3)N2C1=O)NCc1ccco1 (stereo not drawn)	-52
CCOC(=O)N1CCN(C(=O)C2CCCN(S(=O)(=O)c3c(C)cc(C)cc3C)C2)CC1 (stereo not drawn)	-18.2
COc1cccc2c1Oc1cc([N+](=O)[O-])cc(N(C)C(C)=O)c1C=C2	-6.53
CN(C)c1cc(-c2ccc(C#N)cc2)oc(=O)c1Cl	-50.1
CCn1c2ccc(OC)cc2c2nc3ccccc3nc21	-5.6
O=C(Cn1cc2c(n1)CCCCC2)N1CCc2ccccc21	13.7
CN(CC(=O)Nc1ccc(F)cc1)C(=O)COC(=O)Cc1cccs1	-16.7
O=C(Nc1ccccc1OC(F)F)c1cccc(S(=O)(=O)N2CCCC2)c1	-23.6
Cc1cc(N2CCN(c3ccccn3)CC2)n2nc(C)nc2n1	-51.4

Structure (SMILES)	hERG current change (%, negative = inhibition) at 10uM [%]
O=C(COC(=O)CNC(=O)c1ccc2c(c1)OCO2)Nc1ncc(Cl)cc1Cl	-29.4
CCOCCCn1c(SCC(=O)NC(C)C)nc2ccccc2c1=O	-23.1
Cc1cc(C)cc(NC(=O)Nc2cccc(S(N)(=O)=O)c2)c1	-34
O=S(=O)(c1ccccc1F)N1CCN(Cc2cc3c(cc2Br)OCCO3)CC1	0.385
COC(=O)C1=C(C)N(Cc2ccco2)C(=O)C1	1.28
O=S(=O)(c1ccccc1C(F)(F)F)N1CCN(S(=O)(=O)c2ccccc2C(F)(F)F)CC1	-2.32
O=C(NC1CCCN(CCc2ccccc2)C1)c1c[nH]c2ccccc12 (stereo not drawn)	-68.2
CCSc1nncn1/N=C/c1ccc(OC)c(OC)c1	0.939
COc1ccc(O)c(C(=O)c2cnc3c(c2)c(=O)[nH]c(=O)n3C)c1	1.77
O=C(NCc1nc2ccccc2[nH]1)C1=C[C@H](c2ccc3c(c2)OCO3)C[C@H](OCc2ccc(CO)cc2)O1	-22.4
CCOC(=O)c1sc(C)c2c(=O)n(CCCN3CCOCC3)cnc12	3.91
C[C@H](NC(=O)c1nc[nH]c1C(=O)N[C@@H](Cc1ccccc1)C(=O)OC(C)(C)C)C(=O)OC(C)(C)C	-6.8
COc1cccc(N2C(=O)/C(=C/c3ccc(C)o3)C(=O)NC2=S)c1	15
COc1ccccc1C(=O)NN(C)C1=NS(=O)(=O)c2ccccc21	22.1
Cn1c(SCCN2CCCC2)nnc1C1CCN(S(=O)(=O)c2ccc(F)cc2)CC1	-2.27
COc1cccc(Nc2nc(N)c([N+](=O)[O-])c(NCc3ccco3)n2)c1	-12.8
CN(Cc1ccccc1)CC(O)COc1ccc(CNCc2nccn2C)cc1 (stereo not drawn)	-72.5
CCCCc1c(O)nc(SCC(=O)N2CCCCCC2)[nH]c1=O	1.3
O=C(CSC1=NS(=O)(=O)c2ccccc2N1)Nc1ccc(F)cc1	3.55
Cc1cccc(/C=C2\Sc3ccc(C(=O)N4CCC(C)CC4)cc3N(C)C2=O)c1	0.637
COc1cccc(-c2cc(C(=O)N3CCCc4ccccc43)no2)c1	-13.6
